# Reference: PubChem BioAssay AID1345083 (National Center for Advancing Translational Sciences (NCATS), 2018)
# Where “and” joins values, the source holds several entries; their conditions need not be identical. Equal values may be shown once. The whole screen tested about 94,000 compounds, of which about 6,200 (6.6%) were called active. The shares of active, inactive and inconclusive entries below differ from those in the screen. Calls come from the whole dose curve; as a rule, active = well fitted inhibition curve with a large enough effect; inconclusive = small, poorly fitted or top-dose-only effect; inactive = flat fitted curve, though single readings scatter. A potency beside an inconclusive call is a rough fit, not a confirmed value.
# Experiment: Cytotoxic Profiling in HEK 293 Cell Line of Diverse Libraries Using Quantitative High-Throughput Screening; note: nearly all actives have a fitted effect of over 60% in size
# Details: HEK 293 viability, ATP luminescence (CellTiter-Glo), 48-72 h; activity change, negative = cytotoxicity: at 115 µM (top of the series) unless noted; series mostly up to 115 µM
# How it was run: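 Read-out: CellTiter-Glo ATP luminescence. Cells: HEK 293, 250 cells/well. Exposure: 48 or 72 hr, 37 degree Celsius.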
# % is set by controls: 0 for no effect and ±100 for the full control effect; potency is the fitted concentration of half-maximal effect; tags give direction and shape of the fitted curve.
Compound,Potency,"activity change, negative = cytotoxicity"
CCOc1ccc(NC(=O)N2c3ccccc3CC2c2nc(C3CC3)no2)cc1 (configuration not stated),"inconclusive: 63.1 µM [inhibitor, partial curve, poor fit]",
Cn1cc(CN2C[C@H](C(=O)Nc3nccs3)C[C@H]2c2cccc(C(F)(F)F)c2)cn1,"inconclusive: 100 µM [inhibitor, partial curve, poor fit]",
Cn1ncc2c(C(=O)NCC3CCCCC3)cc(-c3ccc(F)cc3)nc21,"inconclusive: 79.4 µM [inhibitor, partial curve, poor fit]",
CN(C)CCC(=O)N1Cc2ccccc2CC2(CCCCN2C)C1 (configuration not stated),"inconclusive: 100 µM [inhibitor, single point]",
COc1ccc(C)cc1NC(=O)C1CC(=O)N(c2n[nH]c3cc(Br)ccc23)C1 (configuration not stated),active: 44.7 µM,
O=C(Nc1ccccc1)N1CCCC(C(=O)N2CCC(c3nc4ccncc4[nH]3)CC2)C1 (configuration not stated),,inactive: -14.2%
Cc1noc(-c2cccc(F)c2)c1C(=O)NCCc1cccc(Cl)c1,"inconclusive: 79.4 µM [inhibitor, partial curve, poor fit]",
CC(C)CCNC(=O)c1cnc2c(c1)N(C(=O)Cc1cn(C)c3ccccc13)CCC2,"inconclusive: 63.1 µM [inhibitor, full curve]",
CCOC(=O)C(Cc1ccc(F)c(N2CCN(C(=O)OC(C)(C)C)CC2)c1)OC (configuration not stated),"inconclusive: 56.2 µM [inhibitor, partial curve, poor fit]",
CN(C)c1nc2c(c(=O)[nH]1)CCN(Cc1cccc(C(F)(F)F)c1)CC2,"inconclusive: 79.4 µM [inhibitor, single point]",
CCCn1cc(-c2ccncc2)cc1C(=O)NCc1cccc(F)c1,"inconclusive: 89.1 µM [inhibitor, single point]",
COc1ccc(F)cc1-c1cccc(C(=O)NCCNC(=O)c2ccccn2)c1,"inconclusive: 50.1 µM [inhibitor, partial curve, poor fit]",
N#Cc1cccc(NC(=O)O[C@@H]2CO[C@H]3[C@@H]2OC[C@@H]3Nc2nccc(-c3ccc4c(c3)OCO4)n2)c1,active: 28.2 µM,
COc1ccc(CNC(=O)N2CCc3nc(-c4ccccc4)[nH]c3C2)cc1,"inconclusive: 100 µM [inhibitor, single point]",
CCC(=O)N1CCc2c(C(=O)O)cccc21,,inactive: -7.51%
CCc1cc(CNC(=O)c2cc(Cn3c(C)nc4ccccc43)[nH]n2)on1,"inconclusive: 50.1 µM [inhibitor, partial curve, poor fit]",
O=C(NCCCc1ccccc1)c1cc(-c2cccc(C(F)(F)F)c2)c2nncn2n1,,inactive: -22%
CC1=C[C@@H](CNC(=O)c2cccnc2)[C@H](C(C)C)C[C@H]1CC(=O)N1CCCC1,,inactive: -15.4% [at 172 µM]
COc1cccc(CCC(=O)N2CCCC(CN3CCC(C)CC3)CC2)c1 (configuration not stated),"inconclusive: 70.8 µM [inhibitor, single point]",
Cc1cc(C)cc(-c2ccc(CN3CCCC3C(=O)N3CCOCC3)cc2)c1 (configuration not stated),"inconclusive: 50.1 µM [inhibitor, partial curve, poor fit]",
COc1cc(NC(=O)C2CCc3sc(C(=O)N4CCOCC4)cc3C2)cc(OC)c1 (configuration not stated),"inconclusive: 89.1 µM [inhibitor, single point]",

Compound,Potency,"activity change, negative = cytotoxicity"
CCCC1(CO)CCCN(Cc2cnc(-c3ccccn3)nc2)C1 (configuration not stated),"inconclusive: 79.4 µM [inhibitor, partial curve, poor fit]",
CC(C)c1cc(C(=O)N2CCn3nc(C(=O)Nc4ccccc4)cc3C2)n[nH]1,"inconclusive: 35.5 µM [inhibitor, partial curve, poor fit]",
CC1=C[C@@H](CNC(=O)c2ccccn2)[C@H](C(C)C)C[C@H]1CC(=O)N1CCN(C)CC1,,inactive: -12.4% [at 172 µM]
CC(C)CCNC(=O)CCN(CC(C)C)C(=O)c1ccoc1,"inconclusive: 100 µM [inhibitor, single point]",
COc1ccc2[nH]c(C[C@@H]3C[C@@H](C(C)C)[C@H](CN(C)C)C=C3C)nc2n1,"inconclusive: 70.8 µM [inhibitor, partial curve, poor fit]",
CCCS(=O)(=O)N1CCC2(CC1)C(OC)CN2c1cccc(F)c1 (configuration not stated),"inconclusive: 35.5 µM [inhibitor, partial curve, poor fit]",
Cn1nc(C(=O)N2CCCC(CNC(=O)c3ccc(-c4ccccc4)cc3)C2)ccc1=O (configuration not stated),"inconclusive: 44.7 µM [inhibitor, partial curve, poor fit]",
FC(F)(F)c1ccc(-c2noc(-c3ncn4c3COC(c3ccccc3Cl)C4)n2)cc1 (configuration not stated),"inconclusive: 50.1 µM [inhibitor, partial curve, poor fit]",
Cc1ccc(NC(=O)N2CCC(CCNC(=O)c3sccc3C)CC2)cc1,,inactive: -24.5%
O=C(C1CCCN1c1nccc(Nc2ccccc2F)n1)N1CCN(Cc2ccccc2)CC1 (configuration not stated),active: 31.6 µM,
O=C(c1cnc2c(c1)N(C(=O)CCc1ccccc1)CCC2)N1CCN(Cc2ccccc2)CC1,"inconclusive: 79.4 µM [inhibitor, partial curve, poor fit]",
CCOc1ccc(C(=O)N2CC(c3nnc(C(C)C)o3)C3(CCOCC3)C2)cc1 (configuration not stated),,inactive: -3.8%
CCOc1ccc(NC(=O)c2ccc(Cn3ccn4nc5c(c4c3=O)CCCC5)cc2)cc1,"inconclusive: 28.2 µM [inhibitor, full curve, poor fit]",
CC(C)Cc1cc(C(=O)N2CCCC(c3ccc(C(=O)O)cc3)C2)nc(=O)[nH]1 (configuration not stated),,inactive: 2.66%
Cc1noc(-c2cn(C3CCCN(C(=O)c4cccc(Cl)c4)C3)nn2)n1 (configuration not stated),,inactive: -6.32%
CS(=O)(=O)N1CCc2ccc(C(=O)Nc3ccc(Cl)c(C(F)(F)F)c3)cc21,active: 20 µM,
O=C(NCCc1ccc(Cl)cc1)c1nc2cccnc2n(Cc2ccccc2)c1=O,active: 89.1 µM,
c1ccc(Nc2cc3c(cn2)CN(Cc2ccn[nH]2)CCN3)cc1,"inconclusive: 44.7 µM [inhibitor, full curve, poor fit]",
CC(C)Cc1nc2nccc(-c3ccsc3)n2n1,"inconclusive: 50.1 µM [inhibitor, partial curve, poor fit]",
O=[N+]([O-])c1cccc(-c2noc([C@@H]3Cc4nc[nH]c4CN3)n2)c1,"inactive and inconclusive: 126 µM [inhibitor, single point]",
Cc1noc(C2CC3(CCN(C(=O)Cc4c[nH]c5ccccc45)CC3)CN2C)n1 (configuration not stated),,inactive: -6.48%

Compound,Potency,"activity change, negative = cytotoxicity"
Cc1ccc(CNC(=O)N[C@@H]2CN(Cc3cccnc3)C[C@H]2CN(C)C)cc1,,inactive: 4.8%
O=C(NCc1ccc(N2CCOCC2)cc1)c1cccc2c1CCN2C(=O)c1ccccc1,,inactive: -13.3%
O=C(NCCc1ccc(F)cc1)C1CN(c2ccc(F)cc2)C(=O)N1 (configuration not stated),"inconclusive: 79.4 µM [inhibitor, partial curve, poor fit]",
COc1ccc(C(=O)NC2CCN(c3ccc4nnc(-c5ccccc5)n4n3)C2)cc1 (configuration not stated),"inconclusive: 79.4 µM [inhibitor, single point]",
O=C(NCC1CCCCC1)C1CCCCN1Cc1ccc(-c2ccsc2)cc1 (configuration not stated),"inconclusive: 20 µM [inhibitor, partial curve, poor fit]",
Cc1sc2cc(C(=O)NCCN(C)C)[nH]c2c1CN1CCCCC1,"inconclusive: 89.1 µM [inhibitor, single point]",
Cc1noc2ccc(-c3cnn(Cc4ccccc4)c3)nc12,"inconclusive: 100 µM [inhibitor, partial curve]",
CCn1cc(-c2ccccc2)cc1C(=O)NCc1ccncc1,"inconclusive: 44.7 µM [inhibitor, partial curve, poor fit]",
c1ccc(Cn2cc(CN3CCCOCC3)c(-c3cc4ccccc4o3)n2)cc1,"inconclusive: 50.1 µM [inhibitor, partial curve, poor fit]",
O=C(c1ccoc1)N1CCC(N2C(=O)C3(CCCC3)C2c2ccccc2)CC1 (configuration not stated),"inconclusive: 89.1 µM [inhibitor, partial curve, poor fit]",
NCCc1cccc(CN2CCCC(COc3ccccc3F)C2)c1 (configuration not stated),"inconclusive: 56.2 µM [inhibitor, partial curve, poor fit]",
COc1cccc(CN2CC(O)CN(C(=O)c3cccc(C(F)(F)F)c3)CC2=O)c1OC (configuration not stated),"inconclusive: 79.4 µM [inhibitor, partial curve, poor fit]",
COc1ccc(CCN2Cc3cc(NC(=O)c4ccc(F)cc4F)ccc3OC(C)C2=O)cc1 (configuration not stated),"inconclusive: 56.2 µM [inhibitor, partial curve, poor fit]",
COc1ccc(F)cc1-c1ccc(CN2CCCCC2C(=O)N2CCc3ccccc3C2)cc1 (configuration not stated),active: 31.6 µM,
O=C1NCc2ccccc2CC12CCN(Cc1ccc(F)c(Cl)c1)C2 (configuration not stated),"inconclusive: 50.1 µM [inhibitor, partial curve, poor fit]",
CCC(CC)C(=O)NC[C@@H]1C=C(C)[C@H](Cc2nc3c(C)cccc3[nH]2)C[C@H]1C(C)C,active: 44.7 µM,
N#Cc1cccnc1-c1ccc(C(=O)N2CCC(NC(=O)Cc3cccc(Cl)c3)CC2)cc1,"inconclusive: 56.2 µM [inhibitor, partial curve, poor fit]",
CC(C)CN1CCN(c2cc(Cl)ncn2)C(=O)C1,"inconclusive: 126 µM [inhibitor, single point]",
CCc1cc(=O)n(CC(=O)Nc2ccc(C)c(Cl)c2)c(N2CCOCC2)n1,"inconclusive: 89.1 µM [inhibitor, partial curve, poor fit]",
Cc1nc(CN2C(=O)OC3(CCN(C(=O)c4cccc(C#N)c4)CC3)C2(C)c2ccccc2)cs1 (configuration not stated),,inactive: -1.84%
